Data: the supplement of paper PMC6206098
± gives the uncertainty stated by the source. Shown are siRNA guide strands that differ only in the seed, positions 2 to 7.

How the values were obtained:
M565 = assay: cell viability relative to lipid-only control; higher = less toxic; conditions: concentration: 10 nM; 96 h; Mus musculus
Description: (§1)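 Arrayed screen of 4096 siRNA duplexes, each carrying one of all possible 6mer seeds at guide-strand positions 2-7 in a fixed neutral 19mer scaffold (constant flanks: U at position 1, then ACAUGUAAACCA, plus a 3' AA overhang). The passenger strand is 2'-O-methylated at positions 1-2 so only the guide strand loads into RISC. Duplexes were reverse-transfected at 10 nM with RNAiMAX in triplicate in 384-well plates; viability was read by CellTiter-Glo ATP content 96 h after transfection. Values are % viability normalised to lipid-only wells (HeyA8, H460, M565) or to siNT1 (3LL).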

H460 = assay: as above; conditions: concentration: 10 nM; 96 h; Homo sapiens
Description: as §1

HeyA8 = assay: as above; conditions: concentration: 10 nM; 96 h; Homo sapiens
Description: as §1

3LL = assay: cell viability relative to siNT1 control; HeyA8 human ovarian and H460 human lung cancer; M565 mouse liver and 3LL mouse lung cancer; siNT1 is a non-toxic control siRNA; higher = less toxic; conditions: concentration: 10 nM; 96 h; Mus musculus
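Throughout, for cell viability relative to lipid-only control: reverse lipid transfection in 384-well plates, in triplicate, of duplexes on a non-toxic 19mer backbone with passenger strand 2′-O-methylated at positions 1 and 2, luminescence viability read-out.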
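Throughout, for cell viability relative to siNT1 control: Luminescence-based viability of cells reverse transfected in 384-well plates with lipid-complexed siRNAs built on a non-toxic 19mer backbone whose passenger strand carries 2′-O-methyl groups at positions 1 and 2, triplicates.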

UAUUAAUACAUGUAAACCAAA
cell viability (M565): 90.7 ± 8.2%
cell viability (H460): 106 ± 19%
cell viability (HeyA8): 92.5 ± 11%
cell viability (3LL): 113 ± 20%

UAUUACAACAUGUAAACCAAA
cell viability (M565): 97.9 ± 20%
cell viability (H460): 64.4 ± 6.1%
cell viability (HeyA8): 99.8 ± 16%
cell viability (3LL): 98.3 ± 17%

UAUUACCACAUGUAAACCAAA
cell viability (M565): 56.8 ± 7.8%
cell viability (H460): 45.1 ± 1.6%
cell viability (HeyA8): 58.3 ± 5.8%
cell viability (3LL): 58.5 ± 14%

UAUUACGACAUGUAAACCAAA
cell viability (M565): 98.5 ± 19%
cell viability (H460): 74.8 ± 7.9%
cell viability (HeyA8): 95.9 ± 13%
cell viability (3LL): 103 ± 15%

UAUUACUACAUGUAAACCAAA
cell viability (M565): 68.2 ± 11%
cell viability (H460): 61.4 ± 9.1%
cell viability (HeyA8): 74.7 ± 5.8%
cell viability (3LL): 103 ± 18%

UAUUAGAACAUGUAAACCAAA
cell viability (M565): 89.9 ± 5.4%
cell viability (H460): 100 ± 9.2%
cell viability (HeyA8): 96 ± 9.9%
cell viability (3LL): 110 ± 20%

UAUUAGCACAUGUAAACCAAA
cell viability (M565): 60.2 ± 9%
cell viability (H460): 64.6 ± 12%
cell viability (HeyA8): 64.8 ± 4.7%
cell viability (3LL): 28.2 ± 8.9%

UAUUAGGACAUGUAAACCAAA
cell viability (M565): 117 ± 16%
cell viability (H460): 70.2 ± 12%
cell viability (HeyA8): 74.9 ± 6.9%
cell viability (3LL): 106 ± 15%

UAUUAGUACAUGUAAACCAAA
cell viability (M565): 85.6 ± 8.9%
cell viability (H460): 69.6 ± 5.1%
cell viability (HeyA8): 83 ± 4.2%
cell viability (3LL): 111 ± 24%

UAUUAUAACAUGUAAACCAAA
cell viability (M565): 95.6 ± 9.2%
cell viability (H460): 91.5 ± 10%
cell viability (HeyA8): 94 ± 7.3%
cell viability (3LL): 108 ± 23%

UAUUAUCACAUGUAAACCAAA
cell viability (M565): 102 ± 2%
cell viability (H460): 108 ± 7.4%
cell viability (HeyA8): 78.9 ± 9.7%
cell viability (3LL): 90 ± 15%

UAUUAUGACAUGUAAACCAAA
cell viability (M565): 99.3 ± 10%
cell viability (H460): 104 ± 7.8%
cell viability (HeyA8): 99.5 ± 13%
cell viability (3LL): 113 ± 18%

UAUUAUUACAUGUAAACCAAA
cell viability (M565): 95.3 ± 14%
cell viability (H460): 100 ± 11%
cell viability (HeyA8): 94.9 ± 9.6%
cell viability (3LL): 102 ± 25%

UAUUCAAACAUGUAAACCAAA
cell viability (M565): 85 ± 8.6%
cell viability (H460): 89.2 ± 29%
cell viability (HeyA8): 99.7 ± 11%
cell viability (3LL): 99.9 ± 15%

UAUUCACACAUGUAAACCAAA
cell viability (M565): 83.7 ± 5.6%
cell viability (H460): 63.7 ± 6.8%
cell viability (HeyA8): 87 ± 10%
cell viability (3LL): 64.1 ± 15%

UAUUCAGACAUGUAAACCAAA
cell viability (M565): 105 ± 3.7%
cell viability (H460): 67.5 ± 3.7%
cell viability (HeyA8): 92.5 ± 14%
cell viability (3LL): 111 ± 14%

UAUUCAUACAUGUAAACCAAA
cell viability (M565): 81.5 ± 10%
cell viability (H460): 76.8 ± 8.2%
cell viability (HeyA8): 97.3 ± 14%
cell viability (3LL): 82.7 ± 20%

UAUUCCAACAUGUAAACCAAA
cell viability (M565): 124 ± 6.3%
cell viability (H460): 74.9 ± 6%
cell viability (HeyA8): 91.6 ± 14%
cell viability (3LL): 99.2 ± 10%

UAUUCCCACAUGUAAACCAAA
cell viability (M565): 27.6 ± 1.2%
cell viability (H460): 64.4 ± 7.7%
cell viability (HeyA8): 50.3 ± 1.6%
cell viability (3LL): 22.3 ± 5.7%

UAUUCCGACAUGUAAACCAAA
cell viability (M565): 90.3 ± 12%
cell viability (H460): 73.2 ± 7.5%
cell viability (HeyA8): 88.8 ± 10%
cell viability (3LL): 90.4 ± 13%

UAUUCCUACAUGUAAACCAAA
cell viability (M565): 89.4 ± 6.6%
cell viability (H460): 63.8 ± 9.8%
cell viability (HeyA8): 67.5 ± 11%
cell viability (3LL): 58.3 ± 3%

UAUUCGAACAUGUAAACCAAA
cell viability (M565): 85.7 ± 3.4%
cell viability (H460): 67.3 ± 3.5%
cell viability (HeyA8): 99.6 ± 12%
cell viability (3LL): 99.3 ± 11%

UAUUCGCACAUGUAAACCAAA
cell viability (M565): 69.8 ± 1.7%
cell viability (H460): 61.5 ± 6%
cell viability (HeyA8): 70.4 ± 11%
cell viability (3LL): 71.9 ± 20%

UAUUCGGACAUGUAAACCAAA
cell viability (M565): 88.8 ± 7.8%
cell viability (H460): 77.1 ± 6.5%
cell viability (HeyA8): 92.6 ± 4%
cell viability (3LL): 102 ± 18%

UAUUCGUACAUGUAAACCAAA
cell viability (M565): 110 ± 12%
cell viability (H460): 62.2 ± 2.3%
cell viability (HeyA8): 98.6 ± 15%
cell viability (3LL): 88.5 ± 21%

UAUUCUAACAUGUAAACCAAA
cell viability (M565): 91.6 ± 19%
cell viability (H460): 71.2 ± 2.1%
cell viability (HeyA8): 95 ± 9.4%
cell viability (3LL): 99.9 ± 10%

UAUUCUCACAUGUAAACCAAA
cell viability (M565): 38.6 ± 3.5%
cell viability (H460): 60.7 ± 7.3%
cell viability (HeyA8): 86.1 ± 11%
cell viability (3LL): 41.9 ± 5%

UAUUCUGACAUGUAAACCAAA
cell viability (M565): 88 ± 3.7%
cell viability (H460): 64.2 ± 4.5%
cell viability (HeyA8): 95.2 ± 12%
cell viability (3LL): 99.1 ± 22%

UAUUCUUACAUGUAAACCAAA
cell viability (M565): 102 ± 5.4%
cell viability (H460): 88.1 ± 2.9%
cell viability (HeyA8): 97.3 ± 13%
cell viability (3LL): 107 ± 15%

UAUUGAAACAUGUAAACCAAA
cell viability (M565): 81.2 ± 14%
cell viability (H460): 72.9 ± 4.8%
cell viability (HeyA8): 88.2 ± 14%
cell viability (3LL): 95.8 ± 16%

UAUUGACACAUGUAAACCAAA
cell viability (M565): 47.3 ± 9%
cell viability (H460): 61.8 ± 3.4%
cell viability (HeyA8): 79.6 ± 5.2%
cell viability (3LL): 93.8 ± 18%

UAUUGAGACAUGUAAACCAAA
cell viability (M565): 75.7 ± 7.8%
cell viability (H460): 74.2 ± 3.4%
cell viability (HeyA8): 96 ± 11%
cell viability (3LL): 94.6 ± 32%

UAUUGAUACAUGUAAACCAAA
cell viability (M565): 85.3 ± 16%
cell viability (H460): 64.3 ± 4.4%
cell viability (HeyA8): 86.9 ± 8.8%
cell viability (3LL): 103 ± 20%

UAUUGCAACAUGUAAACCAAA
cell viability (M565): 106 ± 13%
cell viability (H460): 71.1 ± 6.5%
cell viability (HeyA8): 83.4 ± 5.2%
cell viability (3LL): 105 ± 26%

UAUUGCCACAUGUAAACCAAA
cell viability (M565): 34.2 ± 5%
cell viability (H460): 18.6 ± 1.4%
cell viability (HeyA8): 9.26 ± 1.2%
cell viability (3LL): 38.6 ± 4%

UAUUGCGACAUGUAAACCAAA
cell viability (M565): 85.2 ± 1.4%
cell viability (H460): 77.9 ± 16%
cell viability (HeyA8): 91.5 ± 9.9%
cell viability (3LL): 55.3 ± 9.9%

UAUUGCUACAUGUAAACCAAA
cell viability (M565): 41.9 ± 4.4%
cell viability (H460): 56.9 ± 4.4%
cell viability (HeyA8): 38.8 ± 7.5%
cell viability (3LL): 70.5 ± 4.2%

UAUUGGAACAUGUAAACCAAA
cell viability (M565): 107 ± 27%
cell viability (H460): 24.7 ± 4.1%
cell viability (HeyA8): 21.2 ± 5.6%
cell viability (3LL): 99.5 ± 16%

UAUUGGCACAUGUAAACCAAA
cell viability (M565): 34 ± 3.3%
cell viability (H460): 53.4 ± 3.3%
cell viability (HeyA8): 60.5 ± 5.2%
cell viability (3LL): 8.12 ± 1.3%

UAUUGGGACAUGUAAACCAAA
cell viability (M565): 47.2 ± 18%
cell viability (H460): 19.4 ± 0.67%
cell viability (HeyA8): 52.3 ± 8.2%
cell viability (3LL): 107 ± 9.5%

UAUUGGUACAUGUAAACCAAA
cell viability (M565): 93.7 ± 22%
cell viability (H460): 41.9 ± 2.9%
cell viability (HeyA8): 43.5 ± 8%
cell viability (3LL): 87.5 ± 30%

UAUUGUAACAUGUAAACCAAA
cell viability (M565): 103 ± 9.7%
cell viability (H460): 82.2 ± 23%
cell viability (HeyA8): 96 ± 18%
cell viability (3LL): 110 ± 11%

UAUUGUCACAUGUAAACCAAA
cell viability (M565): 109 ± 18%
cell viability (H460): 71.1 ± 6.9%
cell viability (HeyA8): 64.1 ± 3.5%
cell viability (3LL): 18.7 ± 3.7%

UAUUGUGACAUGUAAACCAAA
cell viability (M565): 96.1 ± 9.2%
cell viability (H460): 63.1 ± 3.7%
cell viability (HeyA8): 90.3 ± 9.2%
cell viability (3LL): 105 ± 26%
